# Test results published in PubChem BioAssay AID485344 (National Center for Advancing Translational Sciences (NCATS), 2010).
# In all, about 340,000 compounds went through this assay and about 6,900 (2%) were called active. Rule as the data show it: active = inhibition above about 30%; inactive = below that, where a call was filed. This is a selection; strong and weak results do not stand in their true shares. The source gives no active or inactive call for entries shown without one.
# Target: D(2) dopamine receptor (Homo sapiens) (UniProt P14416)
# Chain of UniProt P14416 (P14416 whole entry, looked up): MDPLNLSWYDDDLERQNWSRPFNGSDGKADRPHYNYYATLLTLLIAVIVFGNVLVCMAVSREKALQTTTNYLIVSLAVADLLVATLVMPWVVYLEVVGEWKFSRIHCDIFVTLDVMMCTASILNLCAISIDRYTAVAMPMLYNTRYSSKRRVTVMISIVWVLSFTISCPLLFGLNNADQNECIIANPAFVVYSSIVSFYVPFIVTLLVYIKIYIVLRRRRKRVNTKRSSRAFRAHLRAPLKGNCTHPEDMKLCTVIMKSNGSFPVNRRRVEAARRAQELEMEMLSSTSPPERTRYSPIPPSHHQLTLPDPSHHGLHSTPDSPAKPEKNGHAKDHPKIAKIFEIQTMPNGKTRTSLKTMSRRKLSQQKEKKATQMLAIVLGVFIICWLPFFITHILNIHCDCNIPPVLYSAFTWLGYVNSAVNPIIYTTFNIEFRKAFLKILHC
# Experiment: HTS Assay for Allosteric Antagonists of the Human D2 Dopamine Receptor: Primary Screen for Antagonists; also: 0% is about no effect
# Details: HEK293 TREx D2 cells, calcium flux, dopamine EC80; at 10 µM; stronger effect = higher value
# How it was run: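 Read-out: kinetic calcium fluorescence (1 cycle/s) in inducible HEK293 T-REx D2 cells after an EC80 dopamine addition that followed 180 s compound preincubation. Loss of the dopamine response indicates antagonism.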
row,SMILES,inhibition
1,COc1cccc(Cn2nnc3c(=O)[nH]c(C4CCN(C(=O)c5ccccc5Cl)CC4)nc32)c1,-3.67%
2,CC1=C(C(N)=O)C(c2ccccc2Br)n2ncnc2N1 (configuration not stated),-22.5%
3,O=C(NCc1ccccc1Br)c1cnc2sc(N3CCCCCC3)nn2c1=O,4.88%
4,Cc1cc(C)c(C)c(OCC(O)CN2CCN(c3ccccn3)CC2)c1 (configuration not stated),active: 91.6%
5,CC(C)CCNC(=O)c1cc2cc(S(=O)(=O)N3CCCCC3)ccc2n1C,7.54%
6,CN(C)CCN(C(=O)c1ccc(S(=O)(=O)N2CCc3ccccc32)cc1)c1nc2ccc(F)cc2s1,active: 68.8%
7,O=C(Nc1ccc(F)c(Cl)c1)N1CC=C(c2c[nH]c3ccccc23)CC1,-5.93%
8,O=C(NCCc1ccccc1Cl)c1sc2ncccc2c1-n1cccc1,-22.6%
9,CCC(=O)N1c2ccccc2CC1C(=O)NCCc1ccccc1 (configuration not stated),0.191%
10,COc1ccc2sc(N(Cc3cccnc3)C(=O)c3ccc4c(c3)OCCO4)nc2c1,1.56%
11,COc1ccc(NC(=O)CCOc2ccccc2)c(OC)c1,active: 35.9%
12,CCCCN(CC)CCCNC(=O)c1cc2c(=O)[nH]c3ccccc3c2n1C,-7.83%
13,COc1ccc(NC(=O)CCCSc2nc(-c3ccco3)cc(C(F)(F)F)n2)cc1OC,9.41%
14,COC(=O)c1[nH]c2cccc(OC)c2c1NC(=O)CCN1CCN(c2ccccc2F)CC1,active: 73.6%
15,COc1cccc(-c2nc(S(=O)(=O)c3ccc(Cl)cc3)c(NCc3ccccc3)o2)c1,13.6%
16,CC(=O)Nc1ccc(NS(=O)(=O)c2c(C(=O)N3CCC(C)CC3)c(C)n(C)c2C)cc1,-0.133%
17,COc1cccc(C(=O)Nc2cccc(OCc3cc(=O)n4c5c(sc4n3)CCCC5)c2)c1,-4.02%
18,COc1ccc2oc(=O)c(C(=O)NCCc3c(C)[nH]c4ccc(F)cc34)cc2c1,6.18%
19,CCOc1ccc(CCNC(=O)CN2CCN(Cc3ccc(Cl)cc3)C2=O)cc1OCC,4.85%
20,COc1cccc(NC(=O)C(=O)NCC(c2ccc3c(c2)OCO3)N2CCN(C)CC2)c1 (configuration not stated),9.95%
21,CCc1ccc(N(CC)C(=O)c2cc3c(=O)oc4ccc(C)cc4c3s2)cc1,-6.51%
22,Cc1cccc(C)c1Nc1nn2c(=O)c3cc4c(cc3nc2s1)OCO4,-9.01%
23,CCc1ccc(S(=O)(=O)N(C(=O)c2ccncc2)c2ccc3oc(C)c(C(=O)OC)c3c2)cc1,5.39%
24,COc1ccc(CC(=O)N2CCc3cc(OC)c(OC)cc3C2COc2cc(C)cc(C)c2)cc1OC (configuration not stated),16%
25,O=C(Nc1ccc(-n2nncc2-c2ccco2)cc1)c1cccc(F)c1,active: 42%

row,SMILES,inhibition
1,Cc1nn(S(=O)(=O)c2ccc(Br)cc2)c(C)c1S(=O)(=O)N1CCCCCC1,-4.58%
2,CCOC(=O)c1ccc(N2C(=O)c3n[nH]c(-c4ccco4)c3C2c2ccc(C)cc2)cc1 (configuration not stated),10.4%
3,Cc1cc(C)cc(NC(=O)CCS(=O)(=O)c2cccc3nsnc23)c1,6.3%
4,Cc1ccc(-n2c(=O)cc(N3CCN(c4ccccc4Cl)CC3)[nH]c2=O)cc1,16.3%
5,O=C(Nc1cccc(Cl)c1Cl)c1cc(S(=O)(=O)NCc2ccc3c(c2)OCO3)ccc1F,-2.77%
6,Brc1ccccc1OCCCCN1CCCCC1,active: 75.8%
7,CC(CCc1ccc(O)cc1)NCc1ccc(Cl)cc1Cl (configuration not stated),active: 57%
8,CCC1CN(C(=O)N2CCC(C(=O)Nc3ccccc3F)CC2)c2ccccc2O1 (configuration not stated),-3.98%
9,CCCC(=O)Nc1ccccc1OCc1cc(=O)n2cc(C)ccc2n1,-4.68%
10,Cc1ccc(CCNC(=O)c2ccc3c(Cl)c4c(nc3c2)CCCC4)cc1,7.37%
11,COc1ccc(NC(=O)CN2C(=O)COc3ccc(S(=O)(=O)N4CCCCCC4)cc32)cc1,3.97%
12,COc1ccccc1CNC(=O)c1ccc2nc(N3CCCCC3)sc2c1,28.1%
13,Cc1ccc(C)c(N2CCN(c3c(CN4CCCC4)c(=O)oc4ccccc34)CC2)c1,7.35%
14,Cn1nnnc1SCCCNCc1cc(Cl)ccc1OCc1ccc(F)cc1,-28.6%
15,COC(=O)c1c(NC(=O)c2nc(SCc3ccc(F)cc3)ncc2Cl)sc2c1CCCC2,-2.33%
16,COc1ccccc1/C=N/NC(=O)c1ccc(Br)cc1,active: 71.6%
17,Cc1nn2c(=O)cc(COC(=O)Cc3ccccc3)nc2s1,-9.49%
18,Nc1c(C(=O)Nc2ccc(OC(F)(F)F)cc2)sc2nc(-c3ccncc3)ccc12,-7.95%
19,CCOc1ccccc1-c1noc(CSc2nnc(-c3ccccc3)n2-c2ccc(F)cc2)n1,8.43%
20,CCCCSc1nnc2c(n1)OC(c1ccc(Br)s1)N(C(C)=O)c1ccccc1-2 (configuration not stated),-0.235%
21,CSc1ccc(CCNC(=O)Cn2ccc3cc(S(=O)(=O)N4CCCCCC4)ccc32)cc1,-10.5%
22,Cc1ccc(CN2CCCN(CC(=O)Nc3ccc(C)cc3C)S2(=O)=O)cc1,-0.875%
23,Cc1c(C(=O)Nc2ccc(C(=O)O)cc2)nnn1-c1ccccc1,-3.03%
24,Cc1c(Cl)cccc1NC(=O)c1ccc2c(c1)CCN2S(=O)(=O)c1ccccc1,18.6%
25,c1ccc(CC2CCN(c3nc4ccccc4n4cnnc34)CC2)cc1,active: 37.6%

row,SMILES,inhibition
1,O=C(Nc1nc2n(n1)C(c1ccc(F)cc1)C=C(c1ccccc1)N2)c1ccco1 (configuration not stated),3.17%
2,O=c1c(-c2cc(-c3ccccc3)nc3c2COc2ccc(Cl)cc2-3)coc2ccc(F)cc12,8.65%
3,CN(C)CCNc1ncnc2c1cnn2-c1cccc(Cl)c1,3.28%
4,CN(C)c1ccc(C(CNC(=O)c2ccccc2C(F)(F)F)N2CCOCC2)cc1 (configuration not stated),-11.4%
5,CCn1c2ccccc2c2cc(NC(=O)Cc3ccc(S(=O)(=O)N4CCOCC4)s3)ccc21,active: 36.2%
6,Cc1ccc(S(=O)(=O)N2CCCc3cc(NS(=O)(=O)c4cc(F)ccc4F)ccc32)cc1,-9.26%
7,O=C(Nc1cccc(NC(=O)c2ccccc2F)c1)c1ccccc1,0.165%
8,O=C(Cn1cc(S(=O)(=O)N2CCCC2)c(S(=O)(=O)N2CCCC2)c1)Nc1ccccc1,-6.52%
9,COc1cc(C2CC(=O)c3cnc(N4CCN(CCO)CC4)nc3C2)cc(OC)c1OC (configuration not stated),3.83%
10,Cn1c(=O)c(=O)n(C)c2cc(S(=O)(=O)N3CCN(c4ccc(F)cc4)CC3)ccc21,11.5%
11,CCOC(=O)c1ccc(N2C(=O)c3n[nH]c(-c4ccco4)c3C2c2ccc(OCC)cc2)cc1 (configuration not stated),12.9%
12,CC(C)c1ccc(NC(=O)CC2NCCNC2=O)cc1 (configuration not stated),10.6%
13,O=C(CSc1nc2c(oc3ccccc32)c(=O)n1-c1ccccc1)Nc1ccccc1F,10.1%
14,COc1ccc2c(Sc3ccc(C)cc3)c(C(=O)NCc3ccc(F)cc3)[nH]c2c1,9.7%
15,COc1ccccc1NC(=O)C1=C(C)Nc2nc(CCCO)nn2C1c1cccc(O)c1 (configuration not stated),7.2%
16,CCOC(=O)c1c(C)[nH]c(CCC(=O)Nc2c(C)cccc2CC)c1C,-6.12%
17,CCNc1ncnc2c1nnn2C,-9.13%
18,Cc1cccc(-c2nc3ccccc3n2Cc2ccccc2)c1,6.49%
19,CCC(=O)Nc1ccccc1-c1nc2ccccc2n(CC(=O)c2ccc(Cl)cc2)c1=O,21.5%
20,CCOC(=O)N1CCc2c(sc(NCc3cccc(F)c3)c2C(=O)Nc2ccc(OC)cc2OC)C1,7.67%
21,CN(C/C=C/c1ccccc1[N+](=O)[O-])Cc1ccccc1,active: 56.7%
22,Cc1ccc(S(=O)(=O)c2nnn3c2nc(NC(C)C)c2sccc23)cc1,17.8%
23,CCc1ccc(OCc2cc(=O)n3c4c(sc3n2)CCCC4)cc1,2.42%
24,CCCN(CCC)CCCNC(=O)c1cn(CC)c2ccc(S(=O)(=O)N(C)C3CCCCC3)cc2c1=O,4.28%
25,COc1cccc(N2CCN(C(=O)C3Cc4ccccc4N3C(C)=O)CC2)c1 (configuration not stated),-18.1%

row,SMILES,inhibition
1,O=C(C1CCC1)N1CCCc2cc(S(=O)(=O)N3CCN(c4ccccc4)CC3)ccc21,-7.56%
2,COc1ccccc1N1CCN(CC(O)COc2ccc(C)cc2C)CC1 (configuration not stated),active: 75.9%
3,O=C(Nc1nnc(C(F)(F)F)s1)c1ccc(Br)s1,active: 34.8%
4,COc1ccc(CC(=O)NCCc2sc3nc(-c4ccc(OC)cc4)nn3c2C)cc1,17.2%
5,CCC(=O)N1CCc2cc(Br)cc(S(=O)(=O)CCC(=O)N3CCN(c4ccc(F)cc4)CC3)c21,7.21%
6,Cc1ccccc1OCC(=O)OCc1cc(=O)n2nc(C3CC3)sc2n1,-12.1%
7,COc1ccccc1NC(=O)CCn1nc(-c2ccccc2OC)c2c(C)cc(C)nc21,7.69%
8,Cc1ccccc1NC(=O)Nc1nnc(N2CCCCCC2)s1,12.8%
9,Cc1cc(C)c(C)c(OCC(=O)Nc2ccc(S(=O)(=O)Nc3nc(C)cc(C)n3)cc2)c1,-10.2%
10,O=C(CSC1=Nc2ccccc2N=C(c2ccc(F)cc2)C1)Nc1cccc(C(F)(F)F)c1,13.8%
11,CCc1ccc(NC(=O)CC2C(=O)N(c3cccc(C)c3)C(=O)N2CCC(C)C)cc1 (configuration not stated),8.36%
12,CCOC(=O)C1CCCN(C(=O)C2CCN(S(=O)(=O)c3c(C)noc3/C=C/c3ccccc3F)CC2)C1 (configuration not stated),17.9%
13,O=C(CN1CCN(Cc2ccccc2)CC1)N1CCCc2ccccc21,active: 32.4%
14,CCCCC1(C)OC(=O)C(=Cc2ccc(-c3ccc(Cl)c(C(=O)O)c3)o2)C(=O)O1 (configuration not stated),active: 41.9%
15,COc1ccc(CNC(=O)CN(c2ccc(C(C)C)cc2)S(=O)(=O)c2c(C)nn(C)c2C)cc1,8.25%
16,COc1ccc(NC(=O)CSc2nc3ccccc3nc2N2CCC(C)CC2)cc1,-6.2%
17,Cc1cccc(-c2noc(CN(C3CCCCC3)S(=O)(=O)c3ccc(F)cc3)n2)c1,-8.38%
18,CCC(C(=O)OCc1cc(=O)n2nc(C)sc2n1)c1ccccc1 (configuration not stated),-26.5%
19,Cn1c(N2CCN(c3ccccn3)CC2)nc2c1c(=O)n(Cc1ccc(Cl)cc1)c(=O)n2C,active: 48.7%
20,COc1ccc2c(c1)-c1nc(NC(=O)c3ccc(OC)c(Br)c3)sc1CC2,-9.2%
21,COc1ccc(OC)c(NC(=O)c2c(NCc3sccc3C)sc3c2CCCCC3)c1,-10.2%
22,Cc1ccc(C(=O)Nc2c(-c3ccccc3)nc3ccccn23)cc1,6.92%
